Measurements from PubChem BioAssay AID1794842 (National Center for Advancing Translational Sciences (NCATS), 2023).
Screen size: about 2,800 compounds; fewer than 10 were called active. Calls follow the shape of the dose curve; as a rule, active = well fitted curve in the direction sought with a large enough effect; inconclusive = small, poorly fitted or top-dose-only effect, or another doubt; inactive = no such curve, though single readings can be large or run the other way. The list shows a part of the results.

What follows are compounds tested against Metallo-beta-lactamase type 2 (Klebsiella pneumoniae) (UniProt C7C422) (assay: qHTS to identify inhibitors of the New Delhi Metallo-beta-lactamase (NDM): Meropenem screen against the machine-based learning selections.). Conditions: Purified NDM-1, meropenem hydrolysis, absorbance 300 nm; at 38.4 µM (top of the series) unless noted.
Chain of UniProt C7C422 (C7C422 whole entry, looked up): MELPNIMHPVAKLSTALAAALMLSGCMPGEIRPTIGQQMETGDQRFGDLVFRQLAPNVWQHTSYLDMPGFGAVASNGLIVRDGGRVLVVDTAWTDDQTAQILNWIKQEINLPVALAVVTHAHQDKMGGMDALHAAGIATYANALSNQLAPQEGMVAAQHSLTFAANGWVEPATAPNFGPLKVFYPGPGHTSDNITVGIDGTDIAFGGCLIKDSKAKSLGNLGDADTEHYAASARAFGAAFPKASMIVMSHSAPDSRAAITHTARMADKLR
In short: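 Hydrolysis by 2 nM NDM-1 was followed by absorbance after >30 min compound preincubation in HEPES pH 7.0 buffer with 1 uM Zn2SO4. For nitrocefin (16.7 uM, 15 min, 485 nm) and meropenem (50 uM, 30 min, 300 nm), each substrate ran on separate plates.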
Also: % of control where 0% means no effect.

Activity change, negative = inhibition, inactive:
Cc1ccc(S(=O)(=O)N2CCCC(Cn3c(C)nc4cccnc43)C2)c(C)c1 (configuration not stated) 1.73%
CNC(=O)c1cccc(-c2cnc(Nc3ccccc3)c3c2CCO3)c1 9.05% [at 57.5 µM]
CS(=O)(=O)NC1CCN(c2nc(-c3cccnc3)nc3c2CNC3)CC1 5.15%
O=C1NCCOCCN(C(=O)NCCc2ccccc2)[C@@H]2CCCC[C@H]12 -0.134%
Cc1ccc(-c2ccc3nnc(CNC(=O)Cc4cccc(F)c4)n3n2)cc1 2.42%
CC(C)NC(=O)C[C@@H]1CCNC[C@@H]1Cc1cc(CC2CCCCC2)on1 44.9% [at 57.5 µM]
Cn1cccc1C(=O)N1CC[C@H](CO)[C@H](NC(=O)C2CC2)C1 -0.0114%
Cc1cc(C)n(Cc2cccc(C(=O)N3CCC4(CC3)[C@H](O)C[C@@H]4O)c2)n1 0.758%
CN1[C@H](C(=O)O)C[C@H](C(=O)NCC(C)(C)CO)[C@@H]1c1cccc(F)c1F 53.2%
COc1ccc(C(=O)N2C[C@@H]3OCC(=O)N(Cc4nccn4C)[C@@H]3C2)cc1 0.225% [at 57.5 µM]
CNS(=O)(=O)c1ccc(CN2CC3(CCNCC3)CC2C(=O)O)cc1 (configuration not stated) 37.2%
O=C1Nc2ccccc2CC12CCN(CC1CC1)CC2 -0.718% [at 57.5 µM]
CN1C[C@@H](NC(=O)C2CCCCC2)C[C@H]1c1nc(-c2ccc3c(c2)OCO3)no1 -1.6% [at 57.5 µM]
Cc1nn(-c2ccccn2)c(C)c1[C@@H]1C=C[C@@H](NC(=O)NC(C)C)C1 0.439% [at 57.5 µM]
COCCN1CCN(C[C@@H]2C=C(C)[C@H](Cc3nnc(-c4cccnc4)o3)C[C@H]2C(C)C)CC1 -0.367%
CN1[C@@H](CCC(=O)N2CCOCC2)CNC(=O)[C@@H]2[C@H]1CCN2Cc1cccs1 -1.84% [at 57.5 µM]
N#Cc1cccc(NC(=O)N2C[C@@H]3C[C@H](C2)c2ccc(-c4ccc(OC(F)(F)F)cc4)c(=O)n2C3)c1 0.423%
C=CCNC(=O)N1CCC(O)(c2csc(CN3CCc4ccccc4C3)n2)CC1 -1.62% [at 57.5 µM]
CN1CCN(Cc2nc(C3(O)CCN(C(=O)CC(C)(C)C)CC3)cs2)CC1 -2.04% [at 57.5 µM]
Cc1oc(C(O)c2cccc(O)c2)nc1C(=O)Nc1ccc2[nH]c(=O)oc2c1 (configuration not stated) 6.13% [at 57.5 µM]
COc1ccc(OC)c(CNC(=O)Cc2cccn2-c2ccc(C)cc2)c1 -1.16%
NC(=O)c1cccc(-c2cc(-c3ccncc3)c3cncn3c2)c1 34.3% [at 57.5 µM]
O=C(NC1CCCc2c1[nH]c1ccc(F)cc21)c1ccncc1 (configuration not stated) 2.2%
Cc1ncc2c(c1CNC(=O)c1ccc(OC(F)F)cc1)CCNC2 42.3%
Oc1ccccc1CNC1(Cc2cc(-c3ccccn3)on2)COC1 25.4% [at 57.5 µM]
CCc1nc2c(c(-c3ccc(Cl)cc3)n1)CCN(Cc1ccc(F)cc1)CC2 -1.49%
CS(=O)(=O)c1ccc(CN2C[C@@H]3C[C@H]2C(=O)N(Cc2ccc(OC(F)(F)F)cc2)c2ccccc2O3)cc1 2.69%
COc1ccccc1-c1ccc2ncc(Nc3cccc(N[S+](C)(=O)[O-])c3)n2n1 17.9% [at 57.5 µM]
CC(=O)Nc1ccc(S(=O)(=O)N[C@H]2CO[C@H]3[C@@H]2OC[C@@H]3Nc2nccc(-c3cccs3)n2)cc1 2.93%
NCCn1cc(C(=O)NCC(O)c2ccccc2C(F)(F)F)nn1 (configuration not stated) -3.94%
COCCN1CCCC(c2[nH]ccc2C(=O)NCCc2nc3ccccc3[nH]2)C1 (configuration not stated) -0.111%
NS(=O)(=O)c1ccsc1C(=O)N1CCCC2(CCNCC2)CC1 -2.03%
O=C1CC(C(=O)O)C2(CCN(c3cc(C4CC4)ncn3)CC2)N1 (configuration not stated) 4.66%
O=C(c1ccccc1)N1CCNc2cnc(Nc3cccc(F)c3)nc2C1 10.3% [at 57.5 µM]
COc1ccc(-n2nc(C)c([C@@H]3C=C[C@@H](NC(=S)NCC(C)C)C3)c2C)cc1 0.945% [at 57.5 µM]
O=C(Nc1ccc([C@H]2OCC(=O)N(C3CCOCC3)[C@@H]2CO)cc1)c1ccc(C(F)(F)F)cc1 6.59%
CCOc1cc(CN(C)C(=O)CC2C(=O)NCCN2Cc2ccccc2)ccc1OC (configuration not stated) 3.61%
CCOCCN1C(=O)COC[C@@H]1[C@H](O)c1ccc(NC(C)=O)cc1 0.642% [at 57.5 µM]
CSCC(=O)N1C[C@@H](NC(=O)Nc2ccc(F)cc2F)C[C@H]1C(=O)N[C@H](Cc1ccccc1)C(N)=O 2.29%
Cn1ccc(NC(=O)c2cnc3c(c2)N([S+](=O)([O-])c2cccnc2)CCC3)n1 3.56% [at 57.5 µM]
O=C(O)CCC(=O)N1Cc2[nH]cnc2C[C@H]1C(=O)NC1CCCCC1 13% [at 57.5 µM]
NS(=O)(=O)CCCC(=O)N1CCC(Cc2cccc(C(=O)O)c2)C1 (configuration not stated) -0.193%
Nc1ncc(-c2ccc(-c3cc(NC4CCCC4)nc4[nH]ccc34)cc2)[nH]1 21.1%
CCC(=O)N1CCC(Cc2nc(-c3ccccc3)n[nH]2)CC1 0.766%
COc1ccc(C(=O)N2CCn3c(nn(-c4ccc([N+](=O)[O-])cc4)c3=O)C2)cc1 3.83%
COc1cccc(CN2CCNc3cc(Nc4cccnc4)ncc3C2)c1 6.92% [at 57.5 µM]
O=C(Nc1ccc(Oc2ccccc2)cc1)O[C@@H]1CO[C@H]2[C@@H]1OC[C@@H]2NS(=O)(=O)c1ccc(Cl)cc1 4.54%
CC(C)(C)c1ccc(C(=O)N2CCCC(O)(CN3CCCC3)C2)cc1 (configuration not stated) 3.12%
Cc1ccc(-c2ccc(N)nc2)c2cccnc12 23%
c1cncc(COc2cc3c(cn2)NCCN(Cc2ccc4[nH]ccc4c2)C3)c1 4.63% [at 57.5 µM]
O[C@H]1CC[C@@H](Cc2cc(COc3ccccc3)on2)O[C@@H]1CNC1CCNCC1 2.49%
CCN(CC)C(=O)C[C@@H]1CCNC[C@@H]1Cc1cc(-c2ccc(C(C)(C)C)cc2)on1 -1.07% [at 57.5 µM]
COc1ccc2c(c1)OCC(CNC(=O)c1noc3c1CCCC3)C2 (configuration not stated) -0.417%
COc1cc(SC)ccc1C(=O)N[C@H]1CCN2C(=O)N(c3ccc(OC(F)(F)F)cc3)C(=O)[C@@H]2C1 5.45%
O=C(Nc1ccccc1)Nc1ccc([C@@H](O)[C@H]2COCC(=O)N2Cc2cccnc2)cc1 -1.94% [at 57.5 µM]
COC(=O)c1ccc(N2C[C@H]3OC(=O)N(CCc4ccc(OC)cc4)[C@H]3C2)nc1 11.7%
O[C@@H]1C[C@@H](c2nc(Cc3ccc(F)cc3Cl)no2)N(Cc2ccc(OC(F)(F)F)cc2)C1 -1.29%
C[S+](=O)([O-])c1cccc(NC(=O)Cc2c[nH]c3ncc(-c4ccccc4)cc23)c1 3.35% [at 57.5 µM]
O=C(O)CCc1cc2n(n1)CCCN(C(=O)c1ccc3n[nH]nc3c1)C2 -2.75%
O=C(O)CCc1nc(C2CCOCC2)n[nH]1 5.48%
CC(C)C(=O)NCCC1CCN(C(=O)Nc2cc(F)ccc2F)CC1 1.4%
CC(C)CN(Cc1cccnc1)C1CN(C(=O)NCc2ccc(F)cc2)C1 2.03%
COC(=O)[C@H](NC(=O)[C@@H]1[C@@H](NC(=O)Nc2cccc(SC)c2)CCN1C(=O)C=C(C)C)C(C)C 1.72%
O=C(CCn1nnc(-c2ccccc2)n1)N1CCCC2(CCNCC2)CC1 -4.15%
CC(=O)N1CCN(C(=O)c2cc(CC(C)C)[nH]c(=O)n2)CC(O)C1 (configuration not stated) 5.88%
CC(c1cccc(-c2nc3c(cc2C(N)=O)CCC3)c1)N1CCCC1 (configuration not stated) 0.919%
COc1ccc(CN2C(=O)[C@@H]3C[C@@H](O)CN3C3(CN(C(C)C)C3)C2=O)cc1 3.99% [at 57.5 µM]
Cc1cnc(C(=O)NC2CC(c3nnc(CO)n3C3CC3)C2)[nH]1 (configuration not stated) -2.68%
O=C(Cn1cnnn1)N1CCc2ncnc(NC[C@H]3CCCO3)c2CC1 0.304%
CC[C@H]1CN(C(=O)C2CC2)CC[C@H]1CC(=O)N(C)CCC#N -0.61% [at 57.5 µM]
COC(=O)[C@@H]1Cc2c([nH]c3ccccc23)[C@@H]2C[C@@H](NCCNC(C)=O)C[C@@H](c3cccc(Cl)c3)N12 -0.597%
Cc1cc(C)c(S(=O)(=O)N2CCCC(Cn3cc(CO)nn3)C2)c(C)c1 (configuration not stated) -0.0275%
Cc1ncc2n1C(=O)N(C1CCN(Cc3ccsc3)CC1)C2 3.56% [at 57.5 µM]
COc1ccc(-c2nc3c(c(=O)[nH]2)CCN(C(=O)Nc2ccc4c(c2)CCC4)C3)cc1 -1.88%
CN1c2cc(C(=O)NCc3cccs3)ccc2C(=O)N2CCCCC21 (configuration not stated) -0.378%
OCC1CN(Cc2cscn2)CCC12CCN(Cc1ccccc1)CC2 (configuration not stated) -1.72%
COC(=O)[C@H](NC(=O)[C@@H]1C[C@@H](NS(=O)(=O)c2cccc(C(F)(F)F)c2)CCN1C(=O)CCC(=O)O)C(C)C 0.233%
